In PubChem BioAssay (NCATS):
Several values for one entry are separate records, joined by “and”; a condition that tells them apart may be missing. Equal entries are not always repeated. The inconclusive results got no clear call from the source; some entries with a clear call stand among them for comparison. For some of these results: Where the call is inconclusive, the potency comes from a doubtful curve fit. Activity calls are given as the source filed them. Unless noted, calls follow the shape of the dose curve; as a rule, active = well fitted curve in the direction sought with a large enough effect; inconclusive = small, poorly fitted or top-dose-only effect, or another doubt; inactive = no such curve, though single readings can be large; an effect the other way counts as inactive or inconclusive.

Tests used:
[1] = qHTS assay for small molecule agonists of the antioxidant response element (ARE) signaling pathway measured by Nrf2-dependant transcriptional activity (AID 720636; active = well fitted curve in the direction sought with a large enough effect in the repeat runs; inconclusive = weak or mixed curves; inactive = no such curve, though single readings can be large; an effect the other way counts as inactive or inconclusive; also: potency is read from the fitted curve at half-maximal effect)
In short: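 Reporter gene assay, HepG2 ARE-luc: 16 hr compound, 37 C, 5% CO2; read-out luciferase luminescence.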

[2] = qHTS Assay for Identification of Small Molecule Agonists for Thrombopoietin (TPO) Signaling Pathway (AID 917); also: potency is read from the fitted curve at half-maximal effect
In short: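 Stimulation at the TPO EC50 (26 pM final) was used to detect activators. Ba/F3 mouse cells bearing human TPO receptor and a luciferase reporter under the Glycoprotein IIb promoter were exposed to compounds for 24 hrs at 37 C.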

[3] = Tertiary RLuc qRT-PCR qHTS assay for Zika virus inhibitors (AID 1347169); also: potency is read from the fitted curve at half-maximal effect; nearly all actives have a fitted effect of over 55% in size
In short: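 Vero cells (1,000/well) infected with recombinant ZIKV-RLuc (Cambodian) at MOI 1-2 after compound addition, 48-72 hrs at 37 degrees C. Live-cell Renilla luciferase substrate added; luminescence read after 1-1.5 hrs.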

[4] = qHTS of pediatric cancer cell lines to identify multiple opportunities for drug repurposing: Primary screen for control Hh wild type fibroblast cells (AID 1347106); also: nearly all actives have a fitted effect of over 55% in size; also: potency is read from the fitted curve at half-maximal effect
In short: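 Cells (500-1,000/well) in growth media were settled 5 h at 37 degrees C, then given compounds for 48 h. Viability was read as CellTiter-Glo luminescence. Primary runs used MIPE at 11 points (0.78 nM-46 µM) and NPC at 8 points (0.59 nM-46 µM); follow-ups used 11 points.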

[5] = qHTS of pediatric cancer cell lines to identify multiple opportunities for drug repurposing: Confirmatory screen for NB1643 cells (AID 1347109); also: nearly all actives have a fitted effect of over 45% in size; also: potency is read from the fitted curve at half-maximal effect
In short: (§1)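 Cells (500-1,000/well) rested 5 h, then received compounds for 48 h; metabolically active cells were measured by CellTiter-Glo luminescence. Final concentrations spanned up to 46 µM (MIPE, 11-point) or 0.59 nM-46 µM (NPC, 8-point) in primary screens, 11-point in follow-ups.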

[6] = qHTS of pediatric cancer cell lines to identify multiple opportunities for drug repurposing: Confirmatory screen for SK-N-MC cells (AID 1347111);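 also: cells exposed to compound for 48 h before the readout; nearly all actives have a fitted effect of over 70% in size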; also: potency is read from the fitted curve at half-maximal effect
In short: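 Seed 500-1,000 cells/well; rest 5 h at 37 degrees C. Pin-transfer compounds, 11-point titration. Incubate 48 h. Add CellTiter-Glo, 15 min RT, read luminescence.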

[7] = qHTS of pediatric cancer cell lines to identify multiple opportunities for drug repurposing: Confirmatory screen for TC32 cells (AID 1347118);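 also: cells exposed to compound for 48 h before the read; nearly all actives have a fitted effect of over 65% in size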; also: potency is read from the fitted curve at half-maximal effect
In short: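 Luminescent CellTiter-Glo read-out of metabolically active TC32 cells after 48 h compound exposure. Primary: MIPE 11-point, 0.78 nM–46 µM; NPC 8-point, 0.59 nM–46 µM. Confirmatory: 11-point dilutions.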

[8] = qHTS of pediatric cancer cell lines to identify multiple opportunities for drug repurposing: Confirmatory screen for U-2 OS cells (AID 1347122); also: nearly all actives have a fitted effect of over 65% in size; also: potency is read from the fitted curve at half-maximal effect
In short: as §1

[9] = qHTS of pediatric cancer cell lines to identify multiple opportunities for drug repurposing: Confirmatory screen for OHS-50 cells (AID 1347128);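 also: compound exposure lasted 48 h at 37 degrees C; nearly all actives have a fitted effect of over 55% in size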; also: potency is read from the fitted curve at half-maximal effect
In short: as §1

[10] = Quantitative High-Throughput drug screen in 47 multiple myeloma cell lines against the NCATS MIPE library collection: JIM1_ECACC cell viability assay (AID 1918964; also: potency is read from the fitted curve at half-maximal effect)
In short: (§2)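 Viability readout: CellTiter-Glo luminescence following 5 min room-temperature incubation with reagent. Prior exposure: 48 h, 37C, humidified 5% CO2, 500 cells per well.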

[11] = Quantitative High-Throughput drug screen in 47 multiple myeloma cell lines against the NCATS MIPE library collection: KMS20_JCRB cell viability assay (AID 1918973); details: CellTiter-Glo ATP, 48 h; viability (% of DMSO): at 45.8 µM (top of the series); also: potency is read from the fitted curve at half-maximal effect; nearly all actives have a fitted effect of over 45% in size
In short: as §2

[12] = Quantitative High-Throughput drug screen in 47 multiple myeloma cell lines against the NCATS MIPE library collection: MOLP8_DSMZ cell viability assay (AID 1918977); details: MOLP8 myeloma viability, CellTiter-Glo ATP luminescence, 48 h; viability (% of control): at 45.8 µM (top of the series); also: potency is read from the fitted curve at half-maximal effect; nearly all actives have a fitted effect of over 45% in size
In short: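 ATP-based CellTiter-Glo luminescence after 48 h drug exposure (37 °C, 5% CO2) of 500 myeloma cells per well. DMSO-only wells set 100% viability, media-only wells 0%; MIPE 4.0 library added by pin tool.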

[13] = Cell Viability - H-4-II-E (AID 543); details: H-4-II-E rat hepatoma viability; also: potency is read from the fitted curve at half-maximal effect; nearly all actives have a fitted effect of over 35% in size
In short: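 CellTiter-Glo luminescence (intracellular ATP) measured after 40 h compound exposure at 37 °C in H-4-II-E rat hepatoma cells seeded at 1500/well. Values are AC50s fitted with the standard Hill equation.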

[14] = biological target: Atrial natriuretic peptide receptor 2 (Homo sapiens) (UniProt P20594); assay: Natriuretic polypeptide receptor (hNpr2) antagonism - Pilot subtype selectivity assay (AID 1347050; calls by dose curve; also: potency is read from the fitted curve at half-maximal effect; as to activity change, negative = inhibition: % is scaled to controls: 0 for no effect and ±100 for the full control effect)
Chain of UniProt P20594 (P20594 whole entry, looked up): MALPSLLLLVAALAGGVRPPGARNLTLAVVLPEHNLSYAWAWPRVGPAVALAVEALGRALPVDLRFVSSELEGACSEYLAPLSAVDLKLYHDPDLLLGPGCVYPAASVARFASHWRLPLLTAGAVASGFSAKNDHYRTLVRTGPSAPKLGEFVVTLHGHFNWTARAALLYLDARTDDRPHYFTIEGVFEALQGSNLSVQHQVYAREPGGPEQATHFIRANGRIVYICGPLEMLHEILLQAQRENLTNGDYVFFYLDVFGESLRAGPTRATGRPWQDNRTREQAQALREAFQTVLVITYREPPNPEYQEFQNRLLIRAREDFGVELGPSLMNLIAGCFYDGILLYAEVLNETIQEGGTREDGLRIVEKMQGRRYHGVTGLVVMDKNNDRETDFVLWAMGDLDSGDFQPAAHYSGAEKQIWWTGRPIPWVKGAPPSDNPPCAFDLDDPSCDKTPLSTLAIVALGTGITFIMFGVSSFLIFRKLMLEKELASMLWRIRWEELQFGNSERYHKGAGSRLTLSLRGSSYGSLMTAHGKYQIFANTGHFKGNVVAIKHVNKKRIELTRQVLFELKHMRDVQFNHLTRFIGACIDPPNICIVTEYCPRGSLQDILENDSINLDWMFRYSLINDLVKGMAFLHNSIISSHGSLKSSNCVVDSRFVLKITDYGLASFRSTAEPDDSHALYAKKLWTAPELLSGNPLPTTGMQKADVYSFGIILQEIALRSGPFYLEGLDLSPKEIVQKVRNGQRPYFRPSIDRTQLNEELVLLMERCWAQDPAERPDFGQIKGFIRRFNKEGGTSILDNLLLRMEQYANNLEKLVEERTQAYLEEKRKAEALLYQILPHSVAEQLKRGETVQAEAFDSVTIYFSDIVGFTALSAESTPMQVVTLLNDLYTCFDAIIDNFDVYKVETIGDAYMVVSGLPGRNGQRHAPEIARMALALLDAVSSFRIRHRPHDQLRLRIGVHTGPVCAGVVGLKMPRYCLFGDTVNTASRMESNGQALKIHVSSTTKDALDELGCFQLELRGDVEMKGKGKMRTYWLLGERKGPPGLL
In short: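 Antagonist mode: compounds (LOPAC1280, seven 1:5 dilutions) added 30 min before 1 nM hNppC stimulation of hNpr2-HEK293 cGMP-sensor cells; luminescence read before and 20 min after agonist at ambient temperature.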

[15] = Validation screen for small molecules that induce DNA re-replication in MCF 10A normal breast cells (AID 463097); also: nearly all actives have a fitted effect of over 60% in size; also: potency is read from the fitted curve at half-maximal effect
In short: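 MCF 10A cells exposed to compound 48 hr at 37 C, 5% CO2, then Hoechst-stained 40 min. Laser-scanning imaging of nuclear DNA content (405 nm ex, 500-530 nm em); re-replication scored as rise in nuclei with elevated fluorescence intensity.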

[16] = biological target: Chromobox protein homolog 1 (Homo sapiens) (UniProt P83916); assay: qHTS Validation Assay for Inhibitors of HP1-beta Chromodomain Interactions with Methylated Histone Tails (AID 488953); also: nearly all actives have a fitted effect of over 50% in size; also: potency is read from the fitted curve at half-maximal effect;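 as to activity change, negative = inhibition: loss of AlphaScreen luminescence from HP1-beta binding biotinylated H3K9me3 peptide; % is scaled to controls: 0 for no effect and ±100 for the full control effect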
Chain of UniProt P83916 (P83916 whole entry, looked up): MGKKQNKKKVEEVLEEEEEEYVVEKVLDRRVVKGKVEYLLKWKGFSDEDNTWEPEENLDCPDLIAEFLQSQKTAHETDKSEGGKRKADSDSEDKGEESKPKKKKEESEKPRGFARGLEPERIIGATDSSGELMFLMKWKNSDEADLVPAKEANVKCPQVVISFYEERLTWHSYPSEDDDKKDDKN
In short: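 AlphaScreen proximity signal from streptavidin donor and nickel chelate acceptor beads (final 10 ug/mL) after 30 min dark incubation. Compounds had 30 min at room temperature with preformed complex of 50 nM HP1-beta and 50 nM b-H3(1-18)K9me3 in PBS pH 7.4 with 0.01% Tween-20.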

[17] = AP1 Signaling Pathway (AID 357; active = well fitted curve in either direction with a large enough effect, not every such curve was filed as active; inconclusive = small, poorly fitted or top-dose-only effect, or another doubt; also: top concentration of the series differs between compounds; % is scaled to controls: 0 for no effect and ±100 for the full control effect); details: ME-180 AP-1-bla reporter, EGF-induced, beta-lactamase ratio, 5 h
In short: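 AP-1-bla ME-180 cells with beta-lactamase reporter under AP-1 response element, stimulated with EC50 EGF; compounds titrated, 5 hours at 37 degrees Celsius. CCF4 read at 460/530 nm ratio; positive and negative modulators judged by AC50.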

[18] = Stat Signaling Pathway (AID 446; active = well fitted curve in either direction with a large enough effect, not every such curve was filed as active; inconclusive = small, poorly fitted or top-dose-only effect, or another doubt;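 also: ME-180 cervical cancer cells given 40 pM IL-6 alongside compound; SIE-controlled beta-lactamase reporter measured as 460/530 nm FRET emission ratio; top concentration of the series differs between compounds; % is scaled to controls: 0 for no effect and ±100 for the full control effect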); details: ME-180 (cervical carcinoma) SIE beta-lactamase reporter, IL-6 stimulated, 5 h
In short: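 Compound effects on IL-6-induced STAT reporter activity were measured in ME-180 cells. After overnight culture, cells were co-treated with 40 pM IL-6 for 5 hrs before beta-lactamase substrate loading at room temperature.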

[19] = High Content Imaging Cell-Based qHTS for Inhibitors of the mTORC1 Signaling Pathway in MEF Cells (AID 2667); also: potency is read from the fitted curve at half-maximal effect
In short: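 Tsc2-/-, p53-/- MEFs stably re-expressing WT Tsc2, grown in DMEM + 10% FBS, were treated with compounds for 24 hrs at 37 degree Celsius, fixed, and stained with Alexa-488 phospho-rpS6 Ser235/236 antibody plus Hoechst; results given as % positive cells.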

[20] = test system: Zika virus NS2B-NS3 protease (unlinked); assay: Optimization of GU AMC qHTS for Zika virus inhibitors: Unlinked NS2B-NS3 protease assay (AID 1347151); also: nearly all actives have a fitted effect of over 80% in size; also: potency is read from the fitted curve at half-maximal effect;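 as to activity change, negative = inhibition: 0% = no-inhibitor control and -100% = no-enzyme control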
In short: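 Noncovalent NS2B hydrophilic domain–NS3 protease complex (25 nM final) in 10 mM Tris-HCl pH 8.0, 0.01% Tween 20; AMC substrate, room temperature 15 min (~20% conversion); fluorescence change normalized, 4-parameter Hill fit.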
Tags tell the direction and shape of the fitted curve.

Compound: O=C(Oc1ccccc1)c1cccc(C(=O)Oc2ccccc2)c1
- Potency [1]: inconclusive: 2.17 µM [activator, full curve, poor fit]

Compound: COc1ccccc1N1CCN(CCN2C(=O)CC3(CCCC3)CC2=O)CC1
- Potency [2]: inconclusive: 7.94 µM [inhibitor, partial curve]

Compound: Cc1cc(OCCCS(C)(=O)=O)cc(C)c1-c1cccc(COc2ccc3c(c2)OCC3CC(=O)O)c1 (centres undefined)
- Potency [3]: inconclusive: 3.7 µM [inhibitor, partial curve, poor fit]

Compound: CC1(C)CCC(C)(C)c2cc3c(cc21)Sc1ccccc1N=C3c1ccc(C(=O)O)cc1
- Potency [3]: inconclusive: 2.08 µM [inhibitor, full curve, poor fit]

Compound: O=C(CCCCCCC(=O)Nc1ccccc1)NO
- Potency [4]: inconclusive: 13.3 µM [cytotoxic, partial curve] and inconclusive: 13.2 µM [cytotoxic, partial curve, poor fit]
- Potency [5]: inconclusive: 36.9 µM [cytotoxic, single point]
- Potency [6]: inconclusive: 36.9 µM [cytotoxic, partial curve, poor fit]
- Potency [7]: inconclusive: 36.9 µM [cytotoxic, single point]
- Potency [8]: inconclusive: 36.9 µM [cytotoxic, single point]
- Potency [9]: inconclusive: 36.9 µM [cytotoxic, single point]
- Potency [10]: active: 2.35 µM
- Potency [11]: inconclusive: 1.48 µM [cytotoxic, partial curve, poor fit]
- Potency [12]: inconclusive: 3.32 µM [cytotoxic, full curve]

Compound: NCCNc1cccc2ccccc12
- Potency [13]: inconclusive: 39.8 µM [falling, partial curve]
- Potency [1]: inconclusive: 21.7 µM [activator, partial curve, poor fit]

Compound: CCOC(=O)[C@H](CCc1ccccc1)N[C@@H](C)C(=O)N1Cc2ccccc2C[C@H]1C(=O)O
- Potency [4]: inactive

Compound: CC(=O)O[C@]1(C(C)=O)CC[C@H]2[C@@H]3C=C(Cl)C4=CC(=O)[C@@H]5C[C@@H]5[C@]4(C)[C@H]3CC[C@@]21C
- Potency [13]: inconclusive: 50.1 µM [falling, partial curve]
- Potency [14]: inactive

Compound: CC(C)Cn1cnc2c(N)nc3ccccc3c21
- Potency [10]: inconclusive: 5.26 µM [cytotoxic, full curve, poor fit]
- Potency [11]: inconclusive: 0.0023 µM [cytotoxic, full curve, poor fit]
- Potency [12]: inconclusive: 8.33 µM [cytotoxic, full curve, poor fit]

Compound: O=c1cc[nH]c(=S)[nH]1
- Potency [6]: active: 2.93 µM
- Potency [8]: inactive
- Potency [9]: inconclusive: 0.0066 µM [rising, full curve, poor fit]

Compound: CCCC(C(=O)OCCN(CC)CC)(c1ccccc1)c1ccccc1
- Potency [15]: inactive
- Potency [16]: inconclusive: 39.8 µM [inhibitor, partial curve]

Compound: COc1ccc(C(Cl)=C(c2ccc(OC)cc2)c2ccc(OC)cc2)cc1
- Potency [13]: inconclusive: 31.6 µM [falling, full curve, poor fit]

Compound: CN(C)CCCN1c2ccccc2CCc2ccccc21
- activity change, negative = inhibition ([17]; at 17.2 µM (top of the series)): inconclusive: 70.7% [activator] and inconclusive: 42.9% [activator]
- activity change, negative = inhibition ([17]; at 38 µM (top of the series)): inconclusive: 102% [activator]
- activity, negative = inhibition ([18]; at 38 µM (top of the series)): inconclusive: -44.1% [inhibitor]
- Potency [14]: active: 16.5 µM

Compound: CC(=O)OC/C=C(C)/C=C/C=C(C)/C=C/C1=C(C)CCCC1(C)C
- Potency [13]: inconclusive: 63.1 µM [falling, single point]
- Potency [1]: inconclusive: 66.8 µM [activator, partial curve, poor fit] and inconclusive: 54.5 µM [activator, partial curve, poor fit]

Compound: Cc1nc2sccn2c(=O)c1CCN1CCC(=C(c2ccc(F)cc2)c2ccc(F)cc2)CC1
- activity, negative = inhibition ([18]; at 38 µM (top of the series)): inconclusive: -53.8% [inhibitor]
- Potency [19]: inconclusive: 18.5 µM [falling, single point]
- Potency [15]: inconclusive: 7.08 µM [activator, partial curve]
- Potency [20]: inconclusive: 23.8 µM [inhibitor, single point]
- Potency [3]: inconclusive: 9.3 µM [inhibitor, partial curve]

Compound: CN[C@H]1CC[C@@H](c2ccc(Cl)c(Cl)c2)c2ccccc21
- Potency [19]: inconclusive: 26.1 µM [falling, single point]
- Potency [14]: active: 14.7 µM
- Potency [4]: inconclusive: 33.5 µM [cytotoxic, single point]

Compound: CC1=C(C)C(=O)C(CCCCC#CCCCC#CCO)=C(C)C1=O
- activity change, negative = inhibition ([17]; at 17.2 µM (top of the series)): inconclusive: -46.5% [inhibitor]
- activity change, negative = inhibition ([17]; at 38 µM (top of the series)): inconclusive: -32.6% [inhibitor]
- activity, negative = inhibition ([18]; at 17.2 µM (top of the series)): inactive: -28.2%
- activity, negative = inhibition ([18]; at 38 µM (top of the series)): inactive: -2.29%
- Potency [19]: inconclusive: 26.1 µM [falling, single point]
- Potency [15]: inconclusive: 22.4 µM [activator, single point]
- Potency [20]: inconclusive: 21.2 µM [inhibitor, single point]

Compound: CCCCCCCC/C=C\CCCCCCCC(=O)NCc1ccc(O)c(OC)c1
- Potency [19]: inconclusive: 1.65 µM [falling, partial curve, poor fit]
- Potency [16]: inactive
- Potency [20]: inconclusive: 21.2 µM [inhibitor, partial curve]

Compound: COC(=O)[C@@H](N)Cc1ccc(O)c(O)c1
- Potency [2]: inconclusive: 15.8 µM [inhibitor, partial curve]
- Potency [15]: inactive

Compound: CCc1cc2cc(OC)c(OC)cc2c(Cc2ccccc2)n1
- Potency [5]: inactive
- Potency [6]: inactive
- Potency [7]: inactive
- Potency [8]: inactive
- Potency [9]: inconclusive: 18.5 µM [cytotoxic, partial curve]

Compound: CC(C)[N+](C)(CCOC(=O)C1c2ccccc2Oc2ccccc21)C(C)C
- Potency [2]: inactive
- Potency [20]: inactive

Compound: O=C(NCc1ccccc1)[C@H](Cc1ccccc1)NC(=O)[C@@H]1O[C@@H]1C(=O)NCCc1ccc(O)cc1
- Potency [5]: inconclusive: 0.208 µM [cytotoxic, full curve, poor fit]
- Potency [6]: inconclusive: 0.208 µM [cytotoxic, full curve, poor fit]
- Potency [7]: active: 0.165 µM
- Potency [9]: inactive
- Potency [10]: active: 18.7 µM
- Potency [11]: inconclusive: 7.43 µM [cytotoxic, partial curve, poor fit]
- Potency [12]: inconclusive: 13.2 µM [cytotoxic, partial curve, poor fit]

Compound: COC(=O)C=CC(=O)OC
- Potency [4]: inconclusive: 3.32 µM [cytotoxic, full curve, poor fit]
- Potency [5]: inconclusive: 2.61 µM [cytotoxic, full curve]
- Potency [7]: active: 3.29 µM
- Potency [8]: inconclusive: 32.9 µM [cytotoxic, single point]
- Potency [10]: inconclusive: 7.43 µM [cytotoxic, partial curve, poor fit]
- Potency [11]: active: 2.64 µM
- Potency [12]: inconclusive: 1.05 µM [rising, full curve, poor fit]

Compound: CCN(CC)CCNC(=O)c1ccc(NC(C)=O)cc1
- Potency [2]: inactive
- Potency [16]: inactive
- Potency [14]: inactive

Compound: N#Cc1ccc(N2N=C3c4ccc(C(=O)O)cc4CC[C@@H]3[C@@H]2C2CCCC2)cc1Cl
- Potency [3]: active: 14.7 µM

Compound: Cc1cccc(C)c1OCC(C)N (centres undefined)
- Potency [16]: inactive
